Source: the supplement of paper PMC9513381
Residue numbers refer to the chain shown, from its start. Recombinant human monoclonal antibodies (heavy:light variable regions). ELISA EC50 on the named antigen, from 10 µg/ml down; IC50 / IC90 against spike pseudovirus on 293T-ACE2 cells, 48 h; lower = stronger. Calls: IC50 above 1,000 ng/ml = non-neutralizing; EC50 above 1,000 ng/ml = non-binder. The source prints 1000 for neutralization that was not reached; it is given as >1000 ng/ml. Only binders of the Wuhan-Hu-1 domain have neutralization values.

B1: B1011 (protein)
chain 1: QVQLVQSGAEVKKPGASVKVSCKASGYTFISYYTHWVRQAPGQGLEWMGIINPSDGYTSYAQKFQGRVTMTRDTSASTVYMELSSLRSEDTAVYYCARDSSIAARVVAWGQGTLVTVSS
chain 2: DIQMTQSPSSLSASVGDRVTITCQASQDIYNYLNWYQQKPGKAPKLLIFDAINLETGVPSRFSGSGSGTDFTFTISSLQPEDIATYYCQQHDNLPYSFGQGTKLEIK
B2: B1012 (protein)
chain 1: B1 chain 1
chain 2: B1 chain 2 with Y30G, I52S, T56A, G64A, T74A, T85A, N93D, K103T
B3: B1013 (protein)
chain 1: EVQLVESGGGLVQPGRSLRLSCAASGFTFDDYAIHWVRQPPGKGLEWVSGTSWNSGTIGYADSVKGRFIISRDNAKNSLYLQMNSLRAEDTALYYCAKDIRRSGYCSGGICYTEYYAMDVWGQGTTVTVSS
chain 2: QSALTQPASVSGSPGQSITISCTGTSSDVGGYNYVSWYQQLPGKAPKLMIYDVSTRPSGVSNRFSGSKSGNTASLTVSGLQAEDEANYYCTSYTSDSIVVFGGGTKLTVL
B4: B1014 (protein)
chain 1: B3 chain 1 with T51V, S71T, I110L, Y112N
chain 2: QSALTQPASVSGSPGQSITVSCTGTTSDVGGYNYVSWYQQHPGKAPELMIYDVNKRPSGISNRFSGSKSGNTASLTISGLQAEDEADYYCTSYASSSIVVFGGGTKLTVL
B5: B1015 (protein)
chain 1: QVQLVESGGGVVQPGRSLRLSCTVSGFTFRHYGMHWVRQAPGKGLEWVAVILYDGSDKQYADSVKGRFTIARDNSKNTLYLQMNSLRAEDTAVYYCVKRRGSYCGGDCYSGEFDYWGQGTLVTVSS
chain 2: DIQMTQSPSSLSASVGDRVTITCQASQDISTYLNWFQQKPGKAPNLLISDASNLETGVPSRFSGSGSGTDFTFTISSLQPEDVATYYCQQYHNLPTFAGGTKVELK
B6: B1016 (protein)
chain 1: EVQLVESGGGLVQPGRSLRLSCAASGFTFDDYAMHWVRQAPGKGLEWVSGISWNSGTIGYVDSVKGRFIISRDNAKNSLYLQMYSLRTEDTALYYCVKDVYMGKINLYGHEDYGMDVWGQGTTVTVSS
chain 2: QSVLTQPPSVSGAPGQRVTISCTGSSSNIGASYDVHWYQQLPGTAPKLLIYGKGNRPSGVPDRFSGSKSGTSASLAITGIQAEDEADYYCQSFDSSLSGVVFGGGTKLTVL
B7: B2097 (protein)
chain 1: EVQLVESGGGLVQPGGSLRLSCAASGFTFNMYWMTWVRQAPGKGLEWVANIEPDGSDKDYGESVKGRFTISRDNAKNSLYLQMNSLRAEDSAVYYCATEAMGVGPTSGGFDSWGQGTLVTVSS
chain 2: DIQLTQSPSSLSASVGDRVTITCRASEGISSYLNWYQQKSGKAPKLLMYAASSLQSGVPSRFSGSGSGTDFTLTISSLQPEDFATYYCQQSYTTPRTFGQGTKVEIK
B8: B1017 (protein)
chain 1: QVQLVQSGSEVKKPGSSVKVSCKASGGTFSSYSVTWVRQAPGHGLEWMGGILPILNLPNYAEKFQGRLTITADRSANIAYMELSSLRPDDTAVYYCARDRVNSSGSPYWFDPWGQGTLVTVSS
chain 2: QSVLTQPSSVSGAPGQRVTISCTGSNSNIGAGYDVHWYQQVPGIAPKLLIYANNNRPSGVPDRFSGSKSDTSASLAITGLQAEDEADYYCQSYDSSLSGSVFGGGTKLTVL
B9: B1018 (protein)
chain 1: QVQLVQSGAEVKKPGASVKVSCKASGYTFNGQYMHWVRQAPGQGLEWLGWIDPNSGGTNFAQRFRGRVTMTWDTSISTAYMDLSRLRSDDTAVYYCATDTGTSWSEAEYLDYWGQGTLVTVSS
chain 2: DIQMTQSPSSLSASVGDRVTITCRASQSISSYLNWYQQKPGKAPNLLIYTTSSLQSGVPSRFSGSGSGTDFTFTISSLRPEDFATYYCQQSYSTPPITFGPGTRLEIK
B10: B1019 (protein)
chain 1: EVQLVESGGRVVRPGGSLRLSCAASGFTFGDYGMSWVRQVPGKGLEWVSNINWNGGSITYADSVKGRFTVARDNTKNSLHLQMTSLRVEDTAFYYCARMSCGGDCYSLVGPTGDTWFDPWGQGTLVTVSS
chain 2: NFMLTQPHSVSESPGKTVTISCTGSSGSIASNYVHWYQQRPGSAPITVIYEDKQRPSGVPDRFSGSVDGSSNSASLTISGLKTEDEADYYCQSYDSSSHWVFGGGTKLTVL
B11: B1021 (protein)
chain 1: EVQLVQSGAEVKKPGESLKISCKGSGYSFISNWIGWVRQMPGKGLEWMGIIYPSDSDTIYSPSFQGQVTISADKSISTAYLHWSSLKASDTAIYYCARRESGSYSGYFDLWGRGTLVTVSS
chain 2: QSVLTQPPSASGTPGQRVTISCSGSSSNIGGTPVSWYQQLPGTAPKLVIYNNNQRPSGVPARFSGSKSGTSASLAISGLQSEDEADYYCAAWDDSLNGVFGGGTKLTVL
B12: B1022 (protein)
chain 1: QVQLVESGGGVVQPGRSLRLSCATSGFIFSSYGMHWVRQAPGKGLEWVADISYHGSNKYYADSVKGRFNISRDNSNKTLYLQMNSLRPEDTALYFCAKDLGQGILHFVQWSISRHGLDVWGQGTTVTVSS
chain 2: QSALTQPPSASGSPGQSVTISCTGTSSDVGGYNYVSWYQQHPGKAPKLLIYEVTKRPSGVPDRFSGSKSGNTASLTISGLQAEDEADYYCSSCAVSVIFGGGTKLTVL
B13: B1023 (protein)
chain 1: QVQLQQWGAGLLKPSETLSLTCAVSGGSFSGYYWNWIRQPPGKGLEWIGEINHSGSTNYNPSLKSRVTISLDTSKNHFALKLTSVTAADTAVYYCATAEYNSSWYDAFDLWGQGTMVTVSS
chain 2: QSVLTQPPSASGTPGQRVTISCSGSSSNIGSNPVNWYQQVPGRAPKLLIYSRNQRPSGVPDRFSGSWSGTSASLAISGLQSEDEAEYYCAAWGGNVNGWVFGGGTKLTVL
B14: B1024 (protein)
chain 1: QVQLVQSGAEVKKSGSSVKVSCKASGGIFSRLAISWVRQAPGQGLEWMGGIIPVFATTNYAQKFQGRVTITADESASTVYMELSSLRSEDTAVYFCARALYYYDRSGRTRMEDYFDYWGQGTLVTVSS
chain 2: QSVLTQPPSVSGAPGQRVTISCTGSSSNIGAPSDVHWYQQLPGTAPKLLIYGNSNRPSGVPDRFSGSKSGTSASLAITGLQAEDEADYYCQSYDSSLSAPYVFGTGTKVTVL

Molecular target: SARS-CoV-2 Wuhan-Hu-1 spike pseudovirus
Assay: pseudovirus neutralization IC50; higher = weaker neutralization
Description: (§1)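 Single-round luciferase reporter pseudovirus mixed with antibody dilutions and put on 293T-ACE2 cells for 48 h; signal relative to no-antibody wells, four-parameter fit.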

Binder	pseudovirus neutralization IC50
B1	0.0081 µg/mL
B2	0.00552 µg/mL
B3	0.0216 µg/mL
B4	0.0298 µg/mL
B5	> 1 µg/mL
B6	0.00953 µg/mL
B7	> 1 µg/mL
B8	0.0536 µg/mL
B9	0.0356 µg/mL
B10	0.0274 µg/mL
B11	0.383 µg/mL
B12	0.00934 µg/mL
B13	0.0184 µg/mL
B14	0.0755 µg/mL

Molecular target: SARS-CoV-2 Wuhan-Hu-1 spike pseudovirus
Assay: pseudovirus neutralization IC90; higher = weaker neutralization
Description: as §1

Binder	pseudovirus neutralization IC90
B1	0.0492 µg/mL
B2	0.0529 µg/mL
B3	0.285 µg/mL
B4	0.493 µg/mL
B5	> 1 µg/mL
B6	0.424 µg/mL
B7	> 1 µg/mL
B8	> 1 µg/mL
B9	0.779 µg/mL
B10	0.238 µg/mL
B11	> 1 µg/mL
B12	0.106 µg/mL
B13	0.0725 µg/mL
B14	0.372 µg/mL

Molecular target: SARS-CoV-2 Delta (B.1.617.2) spike RBD
Assay: ELISA binding EC50; higher = weaker binding; ELISA of recombinant human antibody on coated antigen, from 10 µg/ml in fourfold dilutions; four-parameter fit.

Binder	ELISA binding EC50
B1	0.0763 µg/mL
B2	0.207 µg/mL
B3	0.0428 µg/mL
B4	0.0497 µg/mL
B5	0.00555 µg/mL
B6	0.507 µg/mL
B7	0.00507 µg/mL
B8	0.237 µg/mL
B9	0.183 µg/mL
B10	0.00642 µg/mL
B11	0.0487 µg/mL
B12	> 1 µg/mL
B13	> 1 µg/mL
B14	0.00998 µg/mL

Molecular target: SARS-CoV-2 Omicron BA.1 spike protein
Assay: as above

Binder	ELISA binding EC50
B1	0.00058 µg/mL
B2	0.00476 µg/mL
B3	0.0309 µg/mL
B4	0.0351 µg/mL
B5	0.00189 µg/mL
B6	0.0106 µg/mL
B7	0.0119 µg/mL
B8	0.0465 µg/mL
B9	0.0271 µg/mL
B10	0.00827 µg/mL
B11	0.00467 µg/mL
B12	0.0181 µg/mL
B13	0.0442 µg/mL
B14	0.0178 µg/mL

Molecular target: SARS-CoV-2 Wuhan-Hu-1 spike receptor-binding domain
Assay: as above

Binder	ELISA binding EC50
B1	0.00293 µg/mL
B2	0.00399 µg/mL
B3	0.00464 µg/mL
B4	0.00296 µg/mL
B5	0.00103 µg/mL
B6	0.0028 µg/mL
B7	0.00327 µg/mL
B8	0.00381 µg/mL
B9	0.00739 µg/mL
B10	0.00338 µg/mL
B11	0.00317 µg/mL
B12	0.00536 µg/mL
B13	0.00322 µg/mL
B14	0.002 µg/mL
